# Measured values from ChEMBL document CHEMBL5606460, “ASAP - DENV-2 NS2B-NS3 protease fluorescence single point” (2024).
# Screen size: about 2,000 compounds; about 110 (5.5%) showed an effect of 50% or more. Some of the results follow.
# Molecular target: Genome polyprotein (dengue virus type 2) (UniProt P29990)
# [1] = Thailand/16681/1984, Concentration 25.0 uM, Number of replicates 1.0
compound,measurement,setting,value
Cc1cnccc1NC(=O)c1csc(N2CCCCC2)n1,inhibition,"Thailand/16681/1984, Concentration 49.5 uM, Number of replicates 2.0, Standard deviation 0.691667147244976 %",0.934%
same,inhibition,"Thailand/16681/1984, Concentration 99.01 uM, Number of replicates 2.0, Standard deviation 2.1273862022910275 %",2.54%
same,inhibition,"Thailand/16681/1984, Concentration 198.0 uM, Number of replicates 2.0, Standard deviation 0.5461016894837782 %",1.82%
CCn1ccnc(N2CC[C@H](c3ccncc3)C2)c1=O,inhibition,"Thailand/16681/1984, Concentration 50.0 uM, Number of replicates 2.0, Standard deviation 0.2046414941337353 %",7.35%
same,inhibition,"Thailand/16681/1984, Concentration 100.0 uM, Number of replicates 2.0, Standard deviation 1.095049302766406 %",15%
same,inhibition,"Thailand/16681/1984, Concentration 200.0 uM, Number of replicates 2.0, Standard deviation 0.29770915349112725 %",27.7%
Cc1cc(N)cc(CNc2cccc3c(CO)cc(C)nc23)c1,inhibition,"Thailand/16681/1984, Concentration 49.95 uM, Number of replicates 2.0, Standard deviation 2.268676515546947 %",34.9%
same,inhibition,"Thailand/16681/1984, Concentration 99.9 uM, Number of replicates 2.0, Standard deviation 1.0884002159453274 %",63.5%
Cc1cc(CO)c2cccc(NC(=O)[C@@H]3CCCC[C@H]3N)c2n1,inhibition,"Thailand/16681/1984, Concentration 49.95 uM, Number of replicates 2.0, Standard deviation 4.042326157041073 %",-9.54%
CCOc1cc(CNC(=O)[C@]2(c3ccc(F)cc3)CCCNC2)ccc1O,inhibition,"Thailand/16681/1984, Concentration 49.5 uM, Number of replicates 2.0, Standard deviation 2.112880352851639 %",-2.74%
same,inhibition,"Thailand/16681/1984, Concentration 99.01 uM, Number of replicates 2.0, Standard deviation 2.8000385459492225 %",-1.9%
same,inhibition,"Thailand/16681/1984, Concentration 198.0 uM, Number of replicates 2.0, Standard deviation 3.3912044677243944 %",-1.14%
Cc1cc(CO)c2cccc(NCc3sccc3C)c2n1,inhibition,"Thailand/16681/1984, Concentration 49.95 uM, Number of replicates 2.0, Standard deviation 0.6063286087751786 %",9.29%
same,inhibition,"Thailand/16681/1984, Concentration 99.9 uM, Number of replicates 2.0, Standard deviation 2.2830792737948777 %",18.4%
CC1(C)CC(=O)CC(C)(C)N1C(=O)C1CCN(c2ccc(C=O)cc2)CC1,inhibition,[1],14%
CNC(=O)c1cc(Cl)ccc1NC(=O)[C@H]1CCN(c2ccc(Cl)c(Cl)c2)C1=O,inhibition,"Thailand/16681/1984, Concentration 49.5 uM, Number of replicates 2.0, Standard deviation 0.6759059749961148 %",-2.34%
same,inhibition,"Thailand/16681/1984, Concentration 99.01 uM, Number of replicates 2.0, Standard deviation 2.6252938134395687 %",-1.06%
same,inhibition,"Thailand/16681/1984, Concentration 198.0 uM, Number of replicates 2.0, Standard deviation 1.415964468900783 %",0.175%
OC1(c2ccccc2)CCN(Cc2c[nH]c3ccccc23)CC1,inhibition,"Thailand/16681/1984, Concentration 49.5 uM, Number of replicates 2.0, Standard deviation 1.5066695023711998 %",-2.62%
same,inhibition,"Thailand/16681/1984, Concentration 99.01 uM, Number of replicates 2.0, Standard deviation 2.191923816954425 %",-1.95%
same,inhibition,"Thailand/16681/1984, Concentration 198.0 uM, Number of replicates 2.0, Standard deviation 2.125623199617817 %",-1.95%
O=Cc1ccc(N2CCC(C(=O)Nc3ncc(F)cc3Br)CC2)cc1,inhibition,[1],10.9%
O=Cc1ccc(N2CCC(C(=O)NCc3cccc(F)c3Cl)CC2)cc1,inhibition,[1],13.2%
C[C@@H](NC(=O)C1CCN(c2ccc(C=O)cc2)CC1)c1ccc2ccccc2c1,inhibition,[1],1.94%
FC(F)(F)c1ccccc1C1CCN(Cc2c[nH]c3ccccc23)CC1,inhibition,"Thailand/16681/1984, Concentration 49.5 uM, Number of replicates 2.0, Standard deviation 0.24287441770451368 %",3.33%
same,inhibition,"Thailand/16681/1984, Concentration 99.01 uM, Number of replicates 2.0, Standard deviation 0.2288546900158499 %",5.47%
same,inhibition,"Thailand/16681/1984, Concentration 198.0 uM, Number of replicates 2.0, Standard deviation 0.3608066946346046 %",5.84%
O=S(=O)(NC1CCCCC1)c1ccc(Oc2ccccc2Cl)cc1,inhibition,"Thailand/16681/1984, Concentration 49.5 uM, Number of replicates 2.0, Standard deviation 1.7919780415060578 %",0.164%
same,inhibition,"Thailand/16681/1984, Concentration 99.01 uM, Number of replicates 2.0, Standard deviation 2.26588512977007 %",2.51%
same,inhibition,"Thailand/16681/1984, Concentration 198.0 uM, Number of replicates 2.0, Standard deviation 2.2194744531827233 %",5.38%
CCN(CC)CCC[C@H](C)NC(=O)C1CCN(c2ccc(C=O)cc2)CC1,inhibition,[1],14%
O=Cc1ccc(N2CCC(C(=O)NCCN3CCc4ccccc43)CC2)cc1,inhibition,[1],25.9%
CCc1ccc(NS(=O)(=O)c2ccc(Oc3ccccc3Cl)cc2)c(C(=O)NC)c1,inhibition,"Thailand/16681/1984, Concentration 49.5 uM, Number of replicates 2.0, Standard deviation 2.280534278494396 %",20.1%
same,inhibition,"Thailand/16681/1984, Concentration 99.01 uM, Number of replicates 2.0, Standard deviation 1.9533776277108892 %",35.5%
same,inhibition,"Thailand/16681/1984, Concentration 198.0 uM, Number of replicates 2.0, Standard deviation 2.0141203401343657 %",57.1%
CCS(=O)(=O)N1CCN(C(=O)C2CCN(c3ccc(C=O)cc3)CC2)CC1,inhibition,[1],12.7%
Cc1cc(CO)c2cccc(Cc3cccc(NC(=O)[C@@H]4CC(=O)CCN4)c3)c2n1,inhibition,"Thailand/16681/1984, Concentration 49.95 uM, Number of replicates 2.0, Standard deviation 0.827370284601473 %",15.8%
same,inhibition,"Thailand/16681/1984, Concentration 99.9 uM, Number of replicates 2.0, Standard deviation 0.7401310286309556 %",32.9%
Cc1cnccc1NC(=O)c1cccc2c1NC(=O)CO2,inhibition,"Thailand/16681/1984, Concentration 49.5 uM, Number of replicates 2.0, Standard deviation 0.7653388901379272 %",-4.76%
same,inhibition,"Thailand/16681/1984, Concentration 99.01 uM, Number of replicates 2.0, Standard deviation 0.7790757281793859 %",-4.6%
same,inhibition,"Thailand/16681/1984, Concentration 198.0 uM, Number of replicates 2.0, Standard deviation 1.0067147344967875 %",-4.39%
O=Cc1ccc(N2CCC(C(=O)N3CCC(NC(=O)c4ccccc4)CC3)CC2)cc1,inhibition,[1],12.4%
O=Cc1ccc(N2CCC(C(=O)N3CCC(n4c(=O)[nH]c5ccccc54)CC3)CC2)cc1,inhibition,[1],14.8%
O=C1[C@@H]2CCCN2[C@@H](c2ccc([N+](=O)[O-])cc2)N1c1ccc([N+](=O)[O-])cc1,inhibition,"Thailand/16681/1984, Concentration 49.5 uM, Number of replicates 2.0, Standard deviation 0.6893492180908466 %",1.35%
same,inhibition,"Thailand/16681/1984, Concentration 99.01 uM, Number of replicates 2.0, Standard deviation 0.7236546454362888 %",5.8%
same,inhibition,"Thailand/16681/1984, Concentration 198.0 uM, Number of replicates 2.0, Standard deviation 0.5762350845888241 %",14.8%
